Assay results from article PMC9911399, “Two distinct binding modes provide the RNA-binding protein RbFox with extraordinary sequence specificity”.
Residue numbers refer to the chain shown, from its start. The list shows a part of the results.

T1: RBFOX1 RRM (Homo sapiens, UniProt Q9NWB1 109-208)
T1 sequence: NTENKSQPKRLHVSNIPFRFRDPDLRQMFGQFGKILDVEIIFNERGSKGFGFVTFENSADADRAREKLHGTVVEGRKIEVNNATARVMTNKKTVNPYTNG

B1: CAUCUGU (DNA:RNA)
RNA: GGGAGACCGGAAUUCAGAUUGUCCCAUCUGUUUAAAUCCCGUCGUAGCCACCA
DNA 1: CAATCTGAATTCCGGTCTCCC
DNA 2: TGGTGGCTACGACGGGATT
B2: CUUGUAU (DNA:RNA)
RNA: B1 RNA with A26U, C28G, G30A
DNA 1: CAATCTGAATTCCGGTCTCCC
DNA 2: TGGTGGCTACGACGGGATT
B3: GAGUCAG (DNA:RNA)
RNA: B1 RNA with C25G, U27G, C28U, U29C, G30A, U31G
DNA 1: CAATCTGAATTCCGGTCTCCC
DNA 2: TGGTGGCTACGACGGGATT
B4: GUGGGAC (DNA:RNA)
RNA: GGGAGACCGGAAUUCAGAUUGUCCGUGGGACUUAAAUCCCGUCGUAGCCACCA
DNA 1: CAATCTGAATTCCGGTCTCCC
DNA 2: TGGTGGCTACGACGGGATT
B5: UGCAUCA (DNA:RNA)
RNA: B1 RNA with C25U, A26G, U27C, C28A, G30C, U31A
DNA 1: CAATCTGAATTCCGGTCTCCC
DNA 2: TGGTGGCTACGACGGGATT
B6: CGUUAGU (DNA:RNA)
RNA: B1 RNA with A26G, C28U, U29A
DNA 1: CAATCTGAATTCCGGTCTCCC
DNA 2: TGGTGGCTACGACGGGATT
B7: UGCAACU (DNA:RNA)
RNA: B1 RNA with C25U, A26G, U27C, C28A, U29A, G30C
DNA 1: CAATCTGAATTCCGGTCTCCC
DNA 2: TGGTGGCTACGACGGGATT
B8: CGCUGCU (DNA:RNA)
RNA: B1 RNA with A26G, U27C, C28U, U29G, G30C
DNA 1: CAATCTGAATTCCGGTCTCCC
DNA 2: TGGTGGCTACGACGGGATT
B9: AUCAGAU (DNA:RNA)
RNA: B4 RNA with G25A, G27C, G28A, C31U
DNA 1: CAATCTGAATTCCGGTCTCCC
DNA 2: TGGTGGCTACGACGGGATT
B10: CUCGACG (DNA:RNA)
RNA: B4 RNA with G25C, G27C, G29A, A30C, C31G
DNA 1: CAATCTGAATTCCGGTCTCCC
DNA 2: TGGTGGCTACGACGGGATT
B11: UGACAAU (DNA:RNA)
RNA: B1 RNA with C25U, A26G, U27A, U29A, G30A
DNA 1: CAATCTGAATTCCGGTCTCCC
DNA 2: TGGTGGCTACGACGGGATT
B12: CUGAGGU (DNA:RNA)
RNA: B1 RNA with A26U, U27G, C28A, U29G
DNA 1: CAATCTGAATTCCGGTCTCCC
DNA 2: TGGTGGCTACGACGGGATT
B13: GAAAGGU (DNA:RNA)
RNA: B1 RNA with C25G, U27A, C28A, U29G
DNA 1: CAATCTGAATTCCGGTCTCCC
DNA 2: TGGTGGCTACGACGGGATT
B14: UGCACUC (DNA:RNA)
RNA: B4 RNA with G25U, U26G, G27C, G28A, G29C, A30U
DNA 1: CAATCTGAATTCCGGTCTCCC
DNA 2: TGGTGGCTACGACGGGATT
B15: ACAAUUC (DNA:RNA)
RNA: B1 RNA with C25A, A26C, U27A, C28A, G30U, U31C
DNA 1: CAATCTGAATTCCGGTCTCCC
DNA 2: TGGTGGCTACGACGGGATT
B16: CGAACCC (DNA:RNA)
RNA: B1 RNA with A26G, U27A, C28A, U29C, G30C, U31C
DNA 1: CAATCTGAATTCCGGTCTCCC
DNA 2: TGGTGGCTACGACGGGATT
B17: ACACCUG (DNA:RNA)
RNA: B1 RNA with C25A, A26C, U27A, U29C, G30U, U31G
DNA 1: CAATCTGAATTCCGGTCTCCC
DNA 2: TGGTGGCTACGACGGGATT
B18: AUGUCUA (DNA:RNA)
RNA: B4 RNA with G25A, G28U, G29C, A30U, C31A
DNA 1: CAATCTGAATTCCGGTCTCCC
DNA 2: TGGTGGCTACGACGGGATT
B19: GUUCCGG (DNA:RNA)
RNA: B1 RNA with C25G, A26U, U29C, U31G
DNA 1: CAATCTGAATTCCGGTCTCCC
DNA 2: TGGTGGCTACGACGGGATT
B20: UGAUCAG (DNA:RNA)
RNA: B4 RNA with G25U, U26G, G27A, G28U, G29C, C31G
DNA 1: CAATCTGAATTCCGGTCTCCC
DNA 2: TGGTGGCTACGACGGGATT

molecular target: T1, RBFOX1 RRM; test: EMSA; HiTS-Eq, 1 nM pool, 10 min; buffer printed only for the single-RNA assays: 10 mM Tris pH 7.5, 150 mM NaCl, 3.4 mM EDTA, 0.001% NP-40, 30 C; settings: tags: His6 N-terminal (pET28a); label: 5' 32P
Method in brief: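 Relative association constants, normalised to the cognate motif, were derived by comparing read counts of each RNA species with those of the control reaction. The RNA sequenced was the free fraction, separated by 8% native PAGE after a 10 min equilibration in 50 µL of 1 nM 5′-radiolabelled RNA (7 randomized nucleotides) with increasing concentrations of purified wild-type or mutant RbFox RRM.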

Row | Binder | binding signal
1 | B1 | 0.00671 KA relative to UGCAUGU
2 | B2 | 0.0109 KA relative to UGCAUGU
3 | B3 | 0.0127 KA relative to UGCAUGU
4 | B4 | 0.0114 KA relative to UGCAUGU
5 | B5 | 0.0118 KA relative to UGCAUGU
6 | B6 | 0.00958 KA relative to UGCAUGU
7 | B7 | 0.0132 KA relative to UGCAUGU
8 | B8 | 0.0168 KA relative to UGCAUGU
9 | B9 | 0.00568 KA relative to UGCAUGU
10 | B10 | 0.00717 KA relative to UGCAUGU
11 | B11 | 0.0123 KA relative to UGCAUGU
12 | B12 | 0.0176 KA relative to UGCAUGU
13 | B13 | 0.00433 KA relative to UGCAUGU
14 | B14 | 0.0161 KA relative to UGCAUGU
15 | B15 | 0.00135 KA relative to UGCAUGU
16 | B16 | 0.00354 KA relative to UGCAUGU
17 | B17 | 0.00135 KA relative to UGCAUGU
18 | B18 | 0.00606 KA relative to UGCAUGU
19 | B19 | 0.0142 KA relative to UGCAUGU
20 | B20 | 0.0206 KA relative to UGCAUGU
